# Laboratory results: the supplement of paper PMC8728848
# This is one part of the list.
# Assays:
# Experiment in all cases: glycan array binding signal (z-score within array); higher = stronger binding
# Details in all cases: glycan notation: IUPAC condensed, linker removed
# GalNAc3S(b1-4)GlcNAc3S = target: GalNAc3S(b1-4)GlcNAc3S
# In short: (§1)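 Glycan array binding is given as a within-array Z-score, which can be read as non-binding when negative. The arrays, 3228 of them, came from the Consortium for Functional Glycomics database and were retained only where the protein sequence was available. Z-scores were averaged across arrays of the same protein sequence at different concentrations or buffers and across linkers.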
# [1] = target: GalNAc3S(b1-4)[Fuc(a1-3)]GlcNAc
# In short: as §1
# GalNAc4S6S(b1-4)GlcNAc = target: GalNAc4S6S(b1-4)GlcNAc
# In short: as §1
# GalNAc6S(b1-4)GlcNAc = target: GalNAc6S(b1-4)GlcNAc
# In short: as §1
# Glc(a1-4)Glc = target: Glc(a1-4)Glc
# In short: as §1
# [2] = target: Glc(a1-4)Glc(a1-4)Glc(a1-4)Glc
# In short: as §1
# Glc(a1-6)Glc(a1-6)Glc = target: Glc(a1-6)Glc(a1-6)Glc
# In short: as §1
# [3] = target: Glc(a1-6)Glc(a1-6)Glc(a1-6)Glc
# In short: as §1
# Glc(b1-4)Glc = target: Glc(b1-4)Glc
# In short: as §1
# Glc(b1-6)Glc = target: Glc(b1-6)Glc
# In short: as §1
# GlcA(b1-3)Gal = target: GlcA(b1-3)Gal
# In short: as §1
# GlcA(b1-3)GlcNAc = target: GlcA(b1-3)GlcNAc
# In short: as §1
# GlcA(b1-6)Gal = target: GlcA(b1-6)Gal
# In short: as §1
# [4] = target: GlcA3S(b1-3)Gal(b1-4)GlcNAc(b1-2)Man
# In short: as §1
# [5] = target: GlcA3S(b1-3)Gal(b1-4)GlcNAc(b1-3)Gal(b1-4)Glc
# In short: as §1
# [6] = target: GlcNAc(a1-3)Gal(b1-4)GlcNAc
# In short: as §1
# [7] = target: GlcNAc(a1-4)Gal(b1-3)GlcNAc
# In short: as §1
# [8] = target: GlcNAc(a1-4)Gal(b1-4)GalNAc
# In short: as §1
# [9] = target: GlcNAc(a1-4)Gal(b1-4)GlcNAc
# In short: as §1
# [10] = target: GlcNAc(a1-4)Gal(b1-4)GlcNAc(b1-3)Gal(b1-4)Glc
# In short: as §1
# [11] = target: GlcNAc(a1-4)Gal(b1-4)GlcNAc(b1-3)Gal(b1-4)GlcNAc
# In short: as §1
# [12] = target: GlcNAc(a1-4)Gal(b1-4)GlcNAc(b1-3)Gal(b1-4)GlcNAc(b1-3)Gal(b1-4)GlcNAc
# In short: as §1
# [13] = target: GlcNAc(a1-4)Gal(b1-4)GlcNAc(b1-3)Gal(b1-4)[Fuc(a1-3)]GlcNAc(b1-3)Gal(b1-4)[Fuc(a1-3)]GlcNAc
# In short: as §1
# [14] = target: GlcNAc(a1-6)Gal(b1-4)GlcNAc
# In short: as §1
# [15] = target: GlcNAc(b1-2)Gal(b1-3)GalNAc
# In short: as §1
# [16] = target: GlcNAc(b1-2)Man(a1-3)[GlcNAc(b1-2)Man(a1-6)]Man(b1-4)GlcNAc(b1-4)GlcNAc
# In short: as §1
# [17] = target: GlcNAc(b1-2)Man(a1-3)[GlcNAc(b1-2)Man(a1-6)]Man(b1-4)GlcNAc(b1-4)[Fuc(a1-6)]GlcNAc
# In short: as §1
# [18] = target: GlcNAc(b1-2)Man(a1-3)[GlcNAc(b1-4)][GlcNAc(b1-2)Man(a1-6)]Man(b1-4)GlcNAc(b1-4)GlcNAc
# In short: as §1
# [19] = target: GlcNAc(b1-2)Man(a1-3)[GlcNAc(b1-4)][GlcNAc(b1-2)Man(a1-6)]Man(b1-4)GlcNAc(b1-4)[Fuc(a1-6)]GlcNAc
# In short: as §1
# [20] = target: GlcNAc(b1-2)[GlcNAc(b1-4)]Man(a1-3)[GlcNAc(b1-2)Man(a1-6)]Man(b1-4)GlcNAc(b1-4)GlcNAc
# In short: as §1
# [21] = target: GlcNAc(b1-2)[GlcNAc(b1-4)]Man(a1-3)[GlcNAc(b1-4)][GlcNAc(b1-2)Man(a1-6)]Man(b1-4)GlcNAc(b1-4)GlcNAc
# In short: as §1
# [22] = target: GlcNAc(b1-2)[GlcNAc(b1-4)]Man(a1-3)[GlcNAc(b1-4)][GlcNAc(b1-2)[GlcNAc(b1-6)]Man(a1-6)]Man(b1-4)GlcNAc(b1-4)GlcNAc
# In short: as §1
# [23] = target: GlcNAc(b1-2)[GlcNAc(b1-4)]Man(a1-3)[GlcNAc(b1-4)][GlcNAc(b1-2)[GlcNAc(b1-6)]Man(a1-6)]Man(b1-4)GlcNAc(b1-4)[Fuc(a1-6)]GlcNAc
# In short: as §1
# [24] = target: GlcNAc(b1-2)[GlcNAc(b1-6)]Man(a1-6)[GlcNAc(b1-2)Man(a1-3)]Man(b1-4)GlcNAc(b1-4)GlcNAc
# In short: as §1
# [25] = target: GlcNAc(b1-2)[GlcNAc(b1-6)]Man(a1-6)[GlcNAc(b1-2)Man(a1-3)]Man(b1-4)GlcNAc(b1-4)[Fuc(a1-6)]GlcNAc
# In short: as §1
# [26] = target: GlcNAc(b1-2)[GlcNAc(b1-6)]Man(a1-6)[GlcNAc(b1-4)][GlcNAc(b1-2)Man(a1-3)]Man(b1-4)GlcNAc(b1-4)GlcNAc
# In short: as §1
# GlcNAc(b1-3)Fuc = target: GlcNAc(b1-3)Fuc
# In short: as §1
# GlcNAc(b1-3)Gal = target: GlcNAc(b1-3)Gal
# In short: as §1
binder,measurement,setting,value
"AT1G73650(15) (Arabidopsis thaliana), F4HRY1 (protein) MGTVLDSHFLALTAIVTVIYQFIFFVITALFKFDQVTDFAGSTNFVILAVLTLVLKASWHFRQIVLTLLVVVWGLRLGIFLLMETRILQWGEDRRFDEQRGNIVRLIIFWTLQAVWVWTVSLPLTLVNASDGGGSLKPADVIGWTMETWVFGFLIEAAADQQKLSFKNSPENRGKWCDVGVWKYSRHPNYFGEMETLLWWGIFVAASPVLEGAEYLVIFGPLFLTLLLLFVSGIPLLEASADKKHGNSGAYRSYKKTTSPLILFPRGVYGNLPGWFKTVFLFEFPFYSRNLPQEGRLQNSKEKEVKDD",glycan array binding signal (z-score),GalNAc3S(b1-4)GlcNAc3S,-0.562
same,glycan array binding signal (z-score),[1],-0.634
same,glycan array binding signal (z-score),GalNAc4S6S(b1-4)GlcNAc,-0.561
same,glycan array binding signal (z-score),GalNAc6S(b1-4)GlcNAc,0.513
same,glycan array binding signal (z-score),Glc(a1-4)Glc,-0.58
same,glycan array binding signal (z-score),[2],-0.08
same,glycan array binding signal (z-score),Glc(a1-6)Glc(a1-6)Glc,-0.619
same,glycan array binding signal (z-score),[3],-0.258
same,glycan array binding signal (z-score),Glc(b1-4)Glc,0.1
same,glycan array binding signal (z-score),Glc(b1-6)Glc,-0.474
same,glycan array binding signal (z-score),GlcA(b1-3)Gal,-0.423
same,glycan array binding signal (z-score),GlcA(b1-3)GlcNAc,-0.467
same,glycan array binding signal (z-score),GlcA(b1-6)Gal,-0.633
same,glycan array binding signal (z-score),[4],-0.382
same,glycan array binding signal (z-score),[5],-0.496
same,glycan array binding signal (z-score),[6],-0.665
same,glycan array binding signal (z-score),[7],-0.337
same,glycan array binding signal (z-score),[8],-0.413
same,glycan array binding signal (z-score),[9],-0.467
same,glycan array binding signal (z-score),[10],-0.349
same,glycan array binding signal (z-score),[11],-0.326
same,glycan array binding signal (z-score),[12],-0.488
same,glycan array binding signal (z-score),[13],-0.047
same,glycan array binding signal (z-score),[14],-0.621
same,glycan array binding signal (z-score),[15],-0.316
same,glycan array binding signal (z-score),[16],-0.569
same,glycan array binding signal (z-score),[17],-0.506
same,glycan array binding signal (z-score),[18],2.2
same,glycan array binding signal (z-score),[19],-0.589
same,glycan array binding signal (z-score),[20],-0.407
same,glycan array binding signal (z-score),[21],-0.416
same,glycan array binding signal (z-score),[22],-0.515
same,glycan array binding signal (z-score),[23],-0.195
same,glycan array binding signal (z-score),[24],-0.473
same,glycan array binding signal (z-score),[25],0.047
same,glycan array binding signal (z-score),[26],-0.322
same,glycan array binding signal (z-score),GlcNAc(b1-3)Fuc,-0.6
same,glycan array binding signal (z-score),GlcNAc(b1-3)Gal,-0.339
